# In all, about 420,000 compounds went through this assay and about 64,000 (15%) were called active. This list was built around the results that the source calls inconclusive (neither active nor inactive); the mix of calls is not that of the screen. The call rests on the fitted dose curve; in most records, active means well fitted inhibition curve with a large enough effect; inconclusive means small, poorly fitted or top-dose-only effect; inactive means flat fitted curve, though single readings scatter. Potencies of inconclusive entries are left out as doubtful fits.
# Assay: qHTS for Inhibitors of human tyrosyl-DNA phosphodiesterase 1 (TDP1): qHTS in cells in absence of CPT; further: nearly all actives have a fitted effect of over 55% in size
# Conditions: DT40 Tdp1-/- hTDP1 cells, no CPT, ATP luminescence, 48 h; activity change, negative = growth inhibition: at 46.2 µM (top of the series) unless noted
# Procedure, shortened: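 Cells were dispensed at 400 per well, compounds added by pin tool, plates incubated ≥48 hr at 37 °C, then CellTiter-Glo added for 30 min at room temperature before luminescence reading. Line: DT40 Tdp1-/- complemented with hTDP1; camptothecin omitted.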
# On the % scale 0 is the no-effect control and ±100 the full control effect; potency means the concentration at half of the fitted maximal effect; tags describe the fitted curve by direction and shape.
SMILES,Potency,"activity change, negative = growth inhibition"
Cc1onc(-c2ccccc2Cl)c1C(=O)N1CCCCCC1,inactive,
O=C(c1cc(C(F)(F)F)cc(C(F)(F)F)c1)N1CCC2(CCCN(Cc3ccncc3)C2)CC1,"inconclusive [inhibitor, single point]",
COc1ccc(NC(=O)CSc2nc3nc(C)c(Cc4ccccc4Cl)c(C)n3n2)cc1OC,"inconclusive [inhibitor, single point]",
Cc1c(C(=O)NCCSCc2ccco2)cccc1[N+](=O)[O-],inactive,
COc1ccc(Cl)cc1NC(=O)CCCN1C(=O)C(c2ccccc2)Oc2cccnc21 (stereo unspecified),active: 23.1 µM,
COc1ccc(NC(=O)c2cc3c(=O)n(Cc4cccnc4)ccc3nc2C)cc1OC,,inconclusive: -36.8% [inhibitor]
CC(C)Nc1nc(NC(C)C)nc(OCCOC(=O)c2ccccc2)n1,"inconclusive [inhibitor, single point]",
COc1ccc(CNC(=O)/C=C/c2ccc(OCCCF)cc2)cc1OC,"inconclusive [inhibitor, single point]",
O=C(Nc1ccc(F)cc1)C(c1ccncc1)N1CCN(c2cccc(C(F)(F)F)n2)CC1 (stereo unspecified),active: 20.6 µM,
O=C(Nc1ccc2oc(-c3ccncc3)nc2c1)c1ccc2c(c1)OCCO2,"inconclusive [inhibitor, partial curve]",
COc1cc2c(cc1OC)C(COc1cc(C)cc(C)c1)N(C(=O)COc1ccccc1)CC2 (stereo unspecified),active: 23.1 µM,
CC(=O)c1cc2c(cc1NS(=O)(=O)c1ccccc1F)OCO2,,inconclusive: -33.6% [inhibitor]
C/C(=N\Nc1nc2ccccc2[nH]1)c1cc2ccccc2o1,active: 18.4 µM,
COc1ccc(C(=O)Nc2cc3c(cc2OC)CCCC3)cc1Br,"inconclusive [inhibitor, single point]",
Cc1ccccc1CCNC(=O)c1cc2cc(S(=O)(=O)N3CCCCC3)ccc2n1C,active: 18.4 µM,
CC(C)c1ccc(S(=O)(=O)N2CCN(C(=O)C3CCCCC3)CC2)cc1,inactive,
Cc1cc(OCC(O)CN2CCc3ccccc3C2)cc(C(C)C)c1 (stereo unspecified),"inconclusive [inhibitor, single point]",
O=C(CNC(=O)C1CCCCC1)OCc1cc(=O)oc2ccc3ccccc3c12,"inconclusive [inhibitor, single point]",
COC(=O)Cc1ccc(OCC(=O)Nc2ccc(OC(F)(F)F)cc2)cc1,inactive,
Cc1nc([N+](=O)[O-])cn1CC(=O)Nc1ccc([N+](=O)[O-])cc1,inactive,
C=C1C(=O)[C@]23C[C@H]1CCC2[C@@]1(C)C(C[C@@H]3O)[C@](C)(C(=O)OC)CC[C@@H]1O (stereo partly specified),active: 0.517 µM,
